# Measurements reported in PubChem BioAssay AID1469 (National Center for Advancing Translational Sciences (NCATS), 2008).
# The whole screen tested about 280,000 compounds, of which about 180 (0.064%) were called active. The call rests on the fitted dose curve; in most records, active means well fitted inhibition curve with a large enough effect; inconclusive means small, poorly fitted or top-dose-only effect, or effect the other way; inactive means flat fitted curve, though single readings scatter. The list shows a part of the results, in another mix than the full data.
# Molecular target: Thyroid hormone receptor beta (Homo sapiens) (UniProt P10828)
# Sequence of UniProt P10828 (P10828 whole entry, looked up): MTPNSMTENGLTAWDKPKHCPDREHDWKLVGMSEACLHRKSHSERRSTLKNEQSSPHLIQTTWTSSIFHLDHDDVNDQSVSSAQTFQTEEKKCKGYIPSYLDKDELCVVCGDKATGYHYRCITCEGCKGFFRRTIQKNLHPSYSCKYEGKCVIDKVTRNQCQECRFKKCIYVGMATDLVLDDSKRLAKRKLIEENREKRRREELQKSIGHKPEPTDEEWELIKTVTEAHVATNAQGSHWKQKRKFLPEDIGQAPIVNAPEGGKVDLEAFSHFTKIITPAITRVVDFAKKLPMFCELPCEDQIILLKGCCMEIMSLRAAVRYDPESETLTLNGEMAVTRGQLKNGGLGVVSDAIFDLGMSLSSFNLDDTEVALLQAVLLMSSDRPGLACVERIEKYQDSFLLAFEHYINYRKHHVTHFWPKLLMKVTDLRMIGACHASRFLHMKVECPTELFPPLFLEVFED
# Test: qHTS for Inhibitors of the Interaction of Thyroid Hormone Receptor and Steroid Receptor Coregulator 2; further: nearly all actives have a fitted effect of over 50% in size;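 on activity change, negative = inhibition: plate controls were bound peptide for no effect and peptide without receptor for full effect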
# Conditions: TRbeta-SRC2 peptide binding, fluorescence polarization, receptor liganded with 1 µM T3; series mostly up to 106 µM; activity change, negative = inhibition: at the top concentration
# Text: NIH Molecular Libraries Probe Production Network [MLPCN]
# NIH Chemical Genomics Center [NCGC]
# Assay Provider: R. Kip Guy, St. Jude Children's Research Hospital
# Thyroid receptor (TR) regulates many homeostatic processes including basal metabolism, cardiovascular function, body weight, and lipid trafficking. TR modulators are potential therapeutics for obesity and hyperlipidemias but current thyroid analogs have undesirable side effects, particularly cardiac stimulation. To identify inhibitors that specifically prevent the interaction of TR with the steroid receptor coregulator 2 (SRC2), a fluorescence polarization assay was screened. This assay detects interaction of the ligand-binding domain of human TRb with a Texas Red labeled SRC2 peptide, corresponding to a 20 amino acid region of the nuclear receptor interaction domain (Arnold et al., 2006). Small molecule inhibitors that block the interaction of TR and SRC2 are detected by a decrease in fluorescence polarization.
# Arnold, L. A.; Estebanez-Perpina, E.; Togashi, M.; Shelat, A.; Ocasio, C. A.; McReynolds, A. C.; Nguyen, P.; Baxter, J. D.; Fletterick, R. J.; Webb, P.; Guy, R. K. A high-throughput screening method to identify small molecule inhibitors of thyroid hormone receptor coactivator binding. Sci STKE 2006, p 13.
# NCGC Assay Protocol Summary:
# For screening, 5 uL/well 0.6 uM TRb and 20 nM SRC2 Texas Red in protein buffer (20mM Tris hydrochloride, 100mM NaCl, 10% glycerol, 1mM EDTA, 0.01% NP-40, 1mM DTT, 1uM T3 and 5% DMSO) was dispensed into black solid 1536-well plates (Grenier) using a solenoid-based dispenser. Following transfer of 23 nL compound or DMSO vehicle by a pin tool, the plates were centrifuged 15 s at 1000 RPM and incubated 5 hr at ambient temperature. The plates were read by an Envision (Perkin Elmer) to detect fluorescence polarization of SRC2 Texas Red (555 nm excitation and 632 nm emission). Data were normalized to unbound (all components except TRb) and bound SRC2 Texas Red controls. In this assay, we provide % activity data for each concentration as well as potencies for the active compounds.
# Keywords: NIH Roadmap, MLPCN, MLI, MLSMR, qHTS, NCGC, qHTS, thyroid hormone receptor, steroid receptor coactivator, fluorescence polarization
# Potency means the concentration at half of the fitted maximal effect.
SMILES,"activity change, negative = inhibition",Potency
c1ccc2c(c1)c1cccc3ccc4cccc2c4c31,inactive: -3.74%,
CN(C)[C@@H]1C(=O)C(C(N)=O)=C(O)[C@@]2(O)C(=O)C3=C(O)c4c(O)cccc4[C@@](C)(O)[C@H]3[C@H](O)[C@@H]12,,inactive
CC(=O)NC1N=C(C)N(c2ccccc2)C1=O (centres undefined),,active: 31.6 µM
CN1CC[C@@]2(C)c3cc(O)ccc3N(C)[C@@H]12,inactive: -10.6%,
